Reference: PubChem BioAssay AID485313 (National Center for Advancing Translational Sciences (NCATS), 2010)
About 7,600 (2.4%) of roughly 320,000 compounds were called active. The shares of active, inactive and inconclusive entries below differ from those in the screen. The call rests on the fitted dose curve; in most records, active means well fitted activation curve with a large enough effect; inconclusive means small, poorly fitted or top-dose-only effect; inactive means no such curve, though single readings can be large or run the other way. Potencies of inconclusive entries are left out as doubtful fits.

Assay: qHTS Assay for NPC1 Promoter Activators; further: nearly all actives have a fitted effect of over 60% in size;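 on activation: reporter is driven by a mutant NPC1 promoter; % of control where 0% means no effect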
Conditions: Huh7 NPC1 promoter luciferase reporter, 24 h; series mostly up to 9.22 µM; activation: at the top concentration
Outline: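 Huh7 cells stably carrying NPC1 promoter–luciferase, plated in Opti-MEM with 10% FBS for 2 h, were exposed to compound in DMSO for 24 h at 37 °C; luciferase reagent was added for 10 min and luminescence read.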
Potency means the concentration at half of the fitted maximal effect; tags describe the fitted curve by direction and shape.

Structure (SMILES)	Potency	activation
CN1CCN(c2ccc(-c3ccnn3C(=O)Nc3cccc(C(F)(F)F)c3)cc2)CC1	active: 3.55 µM	
CCc1nnc(NC(=O)CSc2ccc(-c3ccc(C)cc3)nn2)s1	inconclusive [activator, single point]	
Cc1ccc(-c2noc(C3CCN(S(C)(=O)=O)CC3)n2)o1	inconclusive [activator, partial curve]	
Fc1ccccc1-c1nc(-c2ccccc2)no1	active: 3.55 µM	
O=C(NCCCn1ccnc1)c1cc(-c2cccs2)on1	inconclusive [activator, partial curve]	
C(=N\Nc1nc2ccccc2[nH]1)/c1ccccc1	inconclusive [activator, single point]	
Cc1ccc(/C=N/Nc2ccc(Cl)nn2)cc1	active: 1.78 µM	
Cc1nc(-c2coc3cc(O)c(C)cc3c2=O)cs1	inconclusive [activator, single point]	
COc1ccc(-c2nsc3c(N4CCCCC4)ncnc23)cc1	inconclusive [activator, full curve]	
CCOc1cc(/C=N/NC(=O)c2ccc(NC(=O)C3CC3)cc2)ccc1O		inactive: -0.449%
COc1cc2c(cc1OC)C(c1ccc(Cl)cc1)=NCC2		inactive: -10.6%
CCCOc1ccc(C(=O)Nc2ccc(C)cc2[N+](=O)[O-])cc1	inconclusive [activator, single point]	
O=C1/C(=C/c2ccccc2)Oc2cc(OC(=O)N3CCOCC3)ccc21	inconclusive [activator, single point]	
CN(C)c1ccc(C(c2nnnn2C(C)(C)C)N2CCc3ccccc3C2)cc1 (stereo not given)	inconclusive [activator, single point]	
CCCOC1CCCN(C(=O)c2cc(COc3ccc(F)c(F)c3)on2)C1 (stereo not given)	active: 2.82 µM	
O=C(O)CCCN1C(=O)/C(=C/c2ccc(-c3nc4ccccc4s3)o2)SC1=S		inactive: 10.5%
Cc1ccc(NC(=O)CC2CCCC2)c(Br)c1	inconclusive [activator, single point]	
COc1ccccc1S(=O)(=O)NCc1ccc(C(=O)NC(C)c2ccccn2)cc1 (stereo not given)		inactive: 0.932%
COc1ccc(OCCn2c(=O)sc3ccccc32)cc1	inconclusive [activator, single point]	
CCN(CCn1cccn1)C(=O)c1cc(COc2cc(C)ccc2C)on1	active: 3.55 µM	
Cc1nc(-c2ccc3c(c2)OCO3)cs1		inactive: 17.2%
COc1ccc(S(=O)(=O)Nc2cccc(-c3ccc(N4CCCCCC4)nn3)c2)c(OC)c1	inconclusive [activator, single point]	
O=C(c1cc(-c2cccnc2)nc2ccc(Br)cc12)N1CCN(c2ncccn2)CC1		inactive: -0.628%
COc1ccccc1CNC(=O)C(=O)c1cn(CC(=O)N2CCCC2)c2ccccc12		inactive: 16.7%
c1ccc(CSc2ccc(-c3ccccn3)nn2)nc1	active: 2.82 µM	
CCCCc1nc2cc(C(=O)N3CCCCC3CCO)ccc2o1 (stereo not given)	inconclusive [activator, single point]	
CNc1nn(-c2cccc(Cl)c2)nc1N	inconclusive [activator, partial curve]	

Structure (SMILES)	Potency	activation
COc1cc(NC(=O)CCS(=O)(=O)c2ccc3nc(C)sc3c2)cc(OC)c1OC		inactive: -1.42%
Cc1csc(NC(=O)c2cccs2)n1	inconclusive [activator, partial curve]	
CCCS(=O)(=O)N1CCN(Cc2c[nH]c3ccccc23)CC1		inactive: -2.96%
N#C/C(=N\Nc1ccccc1)C(=N)N1CCCCCC1	active: 1.78 µM	
COC(=O)c1ccc(-c2ncc(-c3cccc4ccccc34)o2)cc1	inconclusive [activator, partial curve]	
Cc1cccc(N2CC(C(=O)NCC3COc4ccccc4O3)CC2=O)c1C (stereo not given)		inactive: -0.339%
N=c1oc2ccccc2cc1C(=O)Nc1ccc(F)cc1	active: 0.794 µM	
O=C(Nc1cccc2ncccc12)c1ccco1		inactive: 5.1%
Fc1cccc(-c2cc3nc4c(c(NCc5ccco5)n3n2)CCCC4)c1	inconclusive [activator, single point]	
Cc1sc(NC(=S)NC(=O)c2ccco2)c(C(N)=O)c1C	inconclusive [activator, single point]	
Cc1ccc(NC(=O)c2ccc3c(=O)n4c(nc3c2)CCCCC4)nc1		inactive: 27.9%
Cc1cc(C(=O)N/N=C/c2cccc(Cl)c2Cl)no1	inconclusive [activator, single point]	
O=c1c2ccccc2oc2cc(NCCCn3ccnc3)ccc12	active: 1.12 µM	
CCOC(=O)N1CCN(C(=O)c2cc(COc3cccc(C(F)(F)F)c3)on2)CC1	active: 3.16 µM	
O=C(Cc1cccs1)Nc1nc2c(s1)CCCC2	inconclusive [activator, single point]	
CCc1nc(Nc2ccccc2O)c2oc3ccccc3c2n1	inconclusive [activator, single point]	
O=C(NCCc1ccccc1)Nc1cccc(Cl)c1	inconclusive [activator, single point]	
Cn1cc(/C=C2\SC(=O)N(c3ccc(O)cc3)C2=O)c2ccccc21	inconclusive [activator, single point]	
N/C(Cc1cccc2ccccc12)=N\OC(=O)c1cccs1		inactive: -1.17%
COc1cccc(/C=C/c2ccc3ccccc3n2)c1OC(C)=O	active: 1 µM	
O=C1c2ccccc2CN1CCSC(=S)N1CCSCC1	inconclusive [activator, partial curve]	
COCCCn1c(O)c(/C=C2\N=C(C#N)C(=Nc3ccc(C)cc3)O2)sc1=S		inactive: -18.1%
CN(C)/C=N/c1nc(-c2ccc3ccccc3c2)cs1	active: 0.501 µM	
CCCCNc1c(-c2ccc(-c3cccc(Cl)c3)cc2)nc2ccccn12	inconclusive [activator, single point]	
CN(C)c1ccc(C(=O)c2ccccc2)cc1	inconclusive [activator, partial curve]	
Cc1nc2ccccn2c1C(=O)Nc1ccc(Cl)cc1	inconclusive [activator, single point]	
CC(=O)c1sc(NC(=O)COc2ccc(Cl)cc2Cl)nc1C	inconclusive [activator, partial curve]	

Structure (SMILES)	Potency	activation
COc1ccc(/C=C(/NC(=O)c2ccccc2)C(=O)N2CCC(C)CC2)cc1		inactive: -3.49%
O=C(NC12CC3CC(CC(C3)C1)C2)c1ccc(-c2ccc(Cl)cc2)o1	inconclusive [activator, single point]	
Cn1cc(/C=C2\SC(=O)N(c3ccccc3)C2=O)c2ccccc21	active: 3.55 µM	
Cc1cc(N)n2nc(-c3ccc(C(C)(C)C)cc3)cc2n1	inconclusive [activator, partial curve]	
O=C(CN1C(=O)S/C(=C\c2ccccc2)C1=O)NNC(=O)c1ccccc1O		inactive: 3.38%
c1ccc(-c2ccc(-c3nccc4ccccc34)[nH]2)cc1	inconclusive [activator, single point]	
O=[N+]([O-])c1ccc(O)c(/C=N/Nc2ccccc2[N+](=O)[O-])c1	inconclusive [activator, single point]	
Cc1cc(O)c(C(=O)Nc2cccc(Cl)c2)c(=O)n1C	active: 2.24 µM	
N#C/C(=C\c1ccc(-c2ccc(C(=O)O)cc2)o1)c1nc2ccccc2[nH]1	active: 3.98 µM	
Cc1cc2c(c(=O)o1)C1O[C@](CCCCN3C(=O)c4ccccc4C3=O)(Cc3cc(C#N)ccc31)O2		inactive: -0.071% [at 1.84 µM]
C=CCn1c(SCC(=O)NCc2ccc3c(c2)OCO3)nnc1C1CCCCC1		inactive: 2.88%
CCOC(=O)c1ccc(NC(=O)c2nc[nH]c2C(=O)N[C@@H](CC(C)C)C(=O)OCc2ccccc2)cc1		inactive: -0.945%
O=C(CSc1ccc(F)cc1)NC1CCCCC1	inconclusive [activator, partial curve]	
Nc1cccc(-c2nc3ccc(N)cc3s2)c1	inconclusive [activator, partial curve]	
N#Cc1nc(COc2ccc(Br)cc2)oc1N1CCN(Cc2ccccc2)CC1		inactive: 0.609%
Cn1ccc(C(=O)Nc2ccc3c(c2)OCCO3)n1	active: 0.891 µM	
CSc1nc2ccc(NC(=O)c3c(F)cccc3F)cc2s1	active: 2.51 µM	
CSc1nc2c(cnn2-c2ccccc2)c(=O)n1N	inconclusive [activator, partial curve]	
CCOc1ccccc1N1CCN(C(=O)C2=CC=CN3CCS(=O)(=O)N=C23)CC1		inactive: 1.15%
CCOc1ccc(-c2noc(-c3cccnc3)n2)cc1OC	inconclusive [activator, single point]	
Cc1nn(C)cc1/C=C/C(=O)c1ccc(O)cc1	inconclusive [activator, single point]	
CCOc1ccccc1OCCCC(=O)ON=C(N)c1ccccc1		inactive: 1.45%
CCOC(=O)CNC(=O)c1ccc(SCC)cc1	inconclusive [activator, partial curve]	
Cc1cc(=O)oc2cc(NC(=S)NNC(=O)c3c(Cl)cnn3C)ccc12	active: 0.447 µM	
C(=C\c1ccccn1)/c1ccccn1	inconclusive [activator, partial curve]	
COc1ccc(CCc2nc(-c3cccs3)no2)cc1	inconclusive [activator, partial curve]	
